Holding throughout (format): ADME, organism-based, Macaca mulatta
Data set [1] in a line: Drug level in normal rhesus monkey pons assessed as standard uptake value at 81.2 MBq, iv after 75 mins by microPET. The note with it: in vivo, 1.25 h.
A short description of data set [2]: Drug level in normal rhesus monkey thalamus assessed as standard uptake value at 81.2 MBq, iv after 155 mins by microPET. To be noted: in vivo.
Data set [3] can be described thus: Drug level in normal rhesus monkey parietal cortex assessed as standard uptake value at 81.2 MBq, iv after 115 mins by microPET. To be noted: in vivo.
A short description of data set [4]: Drug level in normal rhesus monkey white matter assessed as standard uptake value at 81.2 MBq, iv after 4.5 mins by microPET. The note with it: in vivo, 0.075 h.
Data set [5] is described as follows: Drug level in normal rhesus monkey pons assessed as standard uptake value at 81.2 MBq, iv after 135 mins by microPET. The note with it: in vivo, 2.25 h.
The nature of data set [6]: Drug level in normal rhesus monkey white matter assessed as standard uptake value at 81.2 MBq, iv after 27.5 mins by microPET. The note with it: in vivo.
The nature of data set [7]: Drug level in normal rhesus monkey thalamus assessed as standard uptake value at 81.2 MBq, iv after 32.5 mins by microPET. The note with it: in vivo.
Data set [8] in a line: Drug level in normal rhesus monkey pons assessed as standard uptake value at 81.2 MBq, iv after 0.5 mins by microPET. The note with it: in vivo.
Data set [9] is described as follows: Drug level in normal rhesus monkey thalamus assessed as standard uptake value at 81.2 MBq, iv after 75 mins by microPET. To be noted: in vivo, 1.25 h.
A short description of data set [10]: Drug level in normal rhesus monkey frontal cortex assessed as standard uptake value at 81.2 MBq, iv after 47.5 mins by microPET. To be noted: in vivo.
A short description of data set [11]: Drug level in normal rhesus monkey cerebellum assessed as standard uptake value at 81.2 MBq, iv after 32.5 mins by microPET. To be noted: in vivo.
A short description of data set [12]: Drug level in normal rhesus monkey frontal cortex assessed as standard uptake value at 81.2 MBq, iv after 85 mins by microPET. To be noted: in vivo.
Data set [13] is described as follows: Drug level in normal rhesus monkey pons assessed as standard uptake value at 81.2 MBq, iv after 10 mins by microPET. The note with it: in vivo.
A short description of data set [14]: Drug level in normal rhesus monkey white matter assessed as standard uptake value at 81.2 MBq, iv after 65 mins by microPET. The note with it: in vivo.
A short description of data set [15]: Drug level in normal rhesus monkey cerebellum assessed as standard uptake value at 81.2 MBq, iv after 3.5 mins by microPET. The note with it: in vivo.
A short description of data set [16]: Drug level in normal rhesus monkey pons assessed as standard uptake value at 81.2 MBq, iv after 57.5 mins by microPET. To be noted: in vivo.
Data set [17] can be described thus: Drug level in normal rhesus monkey white matter assessed as standard uptake value at 81.2 MBq, iv after 105 mins by microPET. To be noted: in vivo, 1.75 h.
Data set [18] can be described thus: Drug level in normal rhesus monkey parietal cortex assessed as standard uptake value at 109.4 MBq, iv after 0.125 mins by microPET. To be noted: in vivo, 7 s.
Data set [19] can be described thus: Drug level in normal rhesus monkey cerebellum assessed as standard uptake value at 109.4 MBq, iv after 6.5 mins by microPET. The note with it: in vivo.
Data set [20] can be described thus: Drug level in normal rhesus monkey cerebellum assessed as standard uptake value at 109.4 MBq, iv after 117 mins by microPET. The note with it: in vivo, 1.95 h.
Data set [21] is described as follows: Drug level in normal rhesus monkey parietal cortex assessed as standard uptake value at 109.4 MBq, iv after 75 mins by microPET. To be noted: in vivo, 1.25 h.
Data set [22] can be described thus: Drug level in normal rhesus monkey parietal cortex assessed as standard uptake value at 109.4 MBq, iv after 81 mins by microPET. To be noted: in vivo, 1.35 h.
Data set [23] can be described thus: Drug level in normal rhesus monkey frontal cortex assessed as standard uptake value at 109.4 MBq, iv after 105 mins by microPET. To be noted: in vivo, 1.75 h.
Data set [24] is described as follows: Drug level in normal rhesus monkey pons assessed as standard uptake value at 109.4 MBq, iv after 0.625 mins by microPET. The note with it: in vivo, 38 s.
Data set [25] is described as follows: Drug level in normal rhesus monkey thalamus assessed as standard uptake value at 109.4 MBq, iv after 6.5 mins by microPET. To be noted: in vivo.
Data set [26] in a line: Drug level in normal rhesus monkey parietal cortex assessed as standard uptake value at 109.4 MBq, iv after 93 mins by microPET. To be noted: in vivo, 1.55 h.
Data set [27] in a line: Drug level in normal rhesus monkey thalamus assessed as standard uptake value at 109.4 MBq, iv after 0.625 mins by microPET. The note with it: in vivo, 38 s.
Data set [28] is described as follows: Drug level in normal rhesus monkey parietal cortex assessed as standard uptake value at 109.4 MBq, iv after 12.5 mins by microPET. The note with it: in vivo.
A short description of data set [29]: Drug level in normal rhesus monkey pons assessed as standard uptake value at 109.4 MBq, iv after 0.125 mins by microPET. The note with it: in vivo, 7 s.
A short description of data set [30]: Drug level in normal rhesus monkey parietal cortex assessed as standard uptake value at 109.4 MBq, iv after 105 mins by microPET. To be noted: in vivo, 1.75 h.
Data set [31] can be described thus: Drug level in normal rhesus monkey white matter assessed as standard uptake value at 109.4 MBq, iv after 63 mins by microPET. To be noted: in vivo, 1.05 h.
A short description of data set [32]: Drug level in normal rhesus monkey cerebellum assessed as standard uptake value at 96.3 MBq, iv after 155 mins by microPET. To be noted: in vivo.
Data set [33] in a line: Drug level in normal rhesus monkey white matter assessed as standard uptake value at 96.3 MBq, iv after 14 mins by microPET. To be noted: in vivo.
Data set [34] is described as follows: Drug level in normal rhesus monkey white matter assessed as standard uptake value at 96.3 MBq, iv after 10 mins by microPET. The note with it: in vivo.
Data set [35] in a line: Drug level in normal rhesus monkey frontal cortex assessed as standard uptake value at 96.3 MBq, iv after 27.5 mins by microPET. To be noted: in vivo.
Data set [36] is described as follows: Drug level in normal rhesus monkey thalamus assessed as standard uptake value at 96.3 MBq, iv after 175 mins by microPET. The note with it: in vivo.
The nature of data set [37]: Drug level in normal rhesus monkey pons assessed as standard uptake value at 96.3 MBq, iv after 145 mins by microPET. The note with it: in vivo.
Data set [38] in a line: Drug level in normal rhesus monkey frontal cortex assessed as standard uptake value at 96.3 MBq, iv after 47.5 mins by microPET. To be noted: in vivo.
The nature of data set [39]: Drug level in normal rhesus monkey cerebellum assessed as standard uptake value at 96.3 MBq, iv after 145 mins by microPET. To be noted: in vivo.
Data set [40] is described as follows: Drug level in normal rhesus monkey pons assessed as standard uptake value at 96.3 MBq, iv after 0.5 mins by microPET. To be noted: in vivo.
The nature of data set [41]: Drug level in normal rhesus monkey cerebellum assessed as standard uptake value at 96.3 MBq, iv after 105 mins by microPET. The note with it: in vivo, 1.75 h.
Data set [42] in a line: Drug level in normal rhesus monkey pons assessed as standard uptake value at 96.3 MBq, iv after 37.5 mins by microPET. To be noted: in vivo, 0.625 h.
A short description of data set [43]: Drug level in normal rhesus monkey frontal cortex assessed as standard uptake value at 96.3 MBq, iv after 75 mins by microPET. To be noted: in vivo, 1.25 h.
Data set [44] in a line: Drug level in normal rhesus monkey frontal cortex assessed as standard uptake value at 96.3 MBq, iv after 37.5 mins by microPET. The note with it: in vivo, 0.625 h.

The source gives many values for each of these; only a part stands here.

On to `CNc1ccc2nc(-c3ccc([18F])cc3)sc2c1`, for which the SUV is reported as 5.729 in data set [1]; 5.03 in data set [2]; 2.684 in data set [3]; 2.875 in data set [4]; 5.697 in [5]; 3.489 in data set [6]. In addition, the SUV was determined as 5.45 in data set [7]; 0.865 in data set [8]; 5.47 in data set [9]; 5.463 in data set [10]; 2.442 in data set [11]; 4.885 in [12]. Also, the SUV in data set [13] was determined as 5.455; in data set [14], 3.927; in data set [15], 3.197; in [16], 5.866; in [17], 4.114.
On to `Nc1ccc2nc(-c3ccc([18F])cc3)sc2c1`, for which the SUV in data set [18] was 0.01; in [19], 5.81; in [20], 2.44; in data set [21] it was 3.95; in data set [22] it was 3.92; in [23], 4.16. Moreover, the SUV in [24] is 1.27; in data set [25], 5.27; in data set [26], 3.75; in data set [27] it was 1.58; in [28], 5.17; in [29] it was -0.03. In addition, the SUV was 3.68 in [30] and 3.51 in [31].
For the molecule `CN(C)c1ccc2nc(-c3ccc([18F])cc3)sc2c1`, the SUV in data set [32] came to 0.83; in data set [33], 1.19; in data set [34] it was 1.43; in [35], 2.07; in data set [36], 1.67; in data set [37], 1.8. In addition, the SUV in data set [38] amounted to 1.95; in [39], 0.93; in data set [40] it was 0.54; in data set [41], 0.91; in [42], 1.75; in data set [43] it was 1.76. In data set [44], the SUV is recorded as 1.83.
